Over roughly 110,000 compounds, “z-score” has its median near -0.1; the highest 2% begin near 2. The list shows a part of the results.

This assay concerns the target Metabotropic glutamate receptor 8 (Rattus norvegicus) (UniProt P70579). As to the kind of experiment: mGluR8 Gi/Go-coupled signaling modulation – cell-based, rat, thallium flux, HTS, primary screen (AID 488969). The settings on record: HEK293 rat mGluR8, GIRK (G protein-gated inwardly rectifying potassium channel) thallium flux, FluoZin2; at 10 µM; stronger effect = higher value; submaximal glutamate (EC20) added with thallium.
Chain of UniProt P70579 (P70579 whole entry, looked up): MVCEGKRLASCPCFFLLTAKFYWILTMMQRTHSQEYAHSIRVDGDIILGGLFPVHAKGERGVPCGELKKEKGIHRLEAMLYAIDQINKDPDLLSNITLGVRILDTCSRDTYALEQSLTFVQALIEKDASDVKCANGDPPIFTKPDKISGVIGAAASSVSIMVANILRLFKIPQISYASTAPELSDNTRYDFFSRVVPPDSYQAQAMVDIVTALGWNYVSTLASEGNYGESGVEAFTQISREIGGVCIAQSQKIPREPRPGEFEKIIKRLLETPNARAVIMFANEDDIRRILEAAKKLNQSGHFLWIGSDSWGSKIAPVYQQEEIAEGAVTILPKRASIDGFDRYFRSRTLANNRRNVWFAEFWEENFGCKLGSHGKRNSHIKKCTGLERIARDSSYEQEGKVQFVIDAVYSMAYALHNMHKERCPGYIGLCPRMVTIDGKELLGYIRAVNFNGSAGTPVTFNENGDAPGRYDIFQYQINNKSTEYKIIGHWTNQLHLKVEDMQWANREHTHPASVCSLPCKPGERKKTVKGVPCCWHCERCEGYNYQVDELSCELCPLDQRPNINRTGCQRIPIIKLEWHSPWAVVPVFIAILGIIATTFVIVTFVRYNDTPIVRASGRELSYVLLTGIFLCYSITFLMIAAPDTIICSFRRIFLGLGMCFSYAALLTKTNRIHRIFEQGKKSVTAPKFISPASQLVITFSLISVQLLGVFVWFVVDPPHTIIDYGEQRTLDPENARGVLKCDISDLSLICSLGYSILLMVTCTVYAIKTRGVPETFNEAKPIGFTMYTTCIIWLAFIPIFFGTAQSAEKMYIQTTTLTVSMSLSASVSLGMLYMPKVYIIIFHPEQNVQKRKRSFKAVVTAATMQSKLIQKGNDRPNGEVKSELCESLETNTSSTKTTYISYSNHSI
Turning to `O=C(Nc1ccccc1)c1ccccc1CCc1ccccc1`, the z-score is -0.961. Regarding `Cc1ccc(NC(=S)NCc2ccccn2)cc1`, the z-score worked out at 0.051. The compound `CC1Cc2cc(/C(O)=C3/C(=O)C(=O)N(CCN4CCOCC4)C3c3cccc(O)c3)ccc2O1` (configuration not stated) gave a z-score of 0.287. To `COCCCN(C(C)=O)c1nc(-c2ccccc2)cs1` belongs 1.18; to `Clc1ccccc1C(c1nnnn1Cc1ccco1)N1CCN(Cc2ccco2)CC1` (configuration not stated), -0.495. With `O=C(CSc1nnc2scc(-c3ccccc3)n12)Nc1nsc(-c2ccc(Cl)cc2)n1` the figure was 0.064; with `COc1ccc(NC(=O)c2oc3ccccc3c2NC(=O)c2ccco2)cc1`, -0.249; with `Cc1nc2cccc(C(=O)NCc3ccccc3)c2o1`, -0.869. With `COc1ccc(C2C(C#N)C(C#N)N3CCCN23)cc1` (configuration not stated) the figure was -0.362; with `O=P1(O)C=C(c2ccccc2)NC(c2ccccc2)=C1`, -0.601; with `COc1ccc(C(=O)Nc2cccc(C(C)=O)c2)cc1S(=O)(=O)N1CCOCC1`, -0.0369. On to `CN(C)S(=O)(=O)c1ccc(C(=O)NCc2ccccc2)cc1`, for which the z-score is -0.487. Regarding `CNC(=O)/C=C1\NC(C)(C)Cc2ccccc21`, the z-score is -0.218.

With `CCOc1cc(C#N)c(NC(=O)c2cccnc2Cl)cc1OCC`, the z-score worked out at 0.172.

Regarding `c1ccc(-n2nnnc2SCc2ccccn2)cc1`, the z-score was 0.236. Compound `CCOC(=O)C1CCCN(C(=O)Cc2c(F)cccc2Cl)C1` (configuration not stated) displayed a z-score of -0.847. To `O=C(NCc1ccco1)[C@@H]1CCCN1C(=O)c1cccs1` belongs 0.505. `Cc1cc(C)c(Cc2c(C)nc3c(C(=O)NCc4ccco4)cnn3c2C)c(C)c1` showed a z-score of -0.167.

Compound `O=C(COc1ccc(/C=N/NC(=O)c2ccc(O)cc2)cc1)Nc1ccc([N+](=O)[O-])cc1` returned a z-score of 0.00315. The compound `S=C1NCCOCCOCCOCCOCCNC(=S)NCCOCCOCCOCCOCCN1` registered a z-score of 0.00625.

Take `O=C(O)C(CCCCN1C(=O)C2C3C=CC(C3)C2C1=O)N1C(=O)C2C3C=CC(C3)C2C1=O` (configuration not stated): the z-score is -0.105. To `CONC(=O)C1CCN(C(=O)OCc2ccccc2)CC1` belongs 0.068; to `CC(OC(=O)c1cccs1)C(=O)NCc1cccs1` (configuration not stated), 0.042; to `O=c1c(N2CCCCC2)coc2ccccc12`, -0.859.

In turn, `CNc1nc2ccccc2n1/N=C/c1cccc(OC)c1OC` returned a z-score of -1.51.

Compound `CN(N)C(=S)NCc1ccccc1` yielded a z-score of -0.0266. With `c1ccc(-c2noc(-c3cccnc3)n2)nc1` the figure was 0.0764; with `CCn1c(=O)c(C(=O)Nc2cccnc2)c(O)c2ccccc21`, 0.352. Take `O=c1[nH]nc(Cc2ccccc2)c2ccccc12`: the z-score is -0.437. In turn, `Cc1ccc(-n2[nH]c(C)c(/C=N/Nc3ccc([N+](=O)[O-])cc3[N+](=O)[O-])c2=O)cc1C` had a z-score of -0.809. The compound `COc1ccc(NC(=O)c2cccc(S(=O)(=O)N3CCOCC3)c2)cn1` registered a z-score of -0.0155. For `Cc1nnc(SCc2cn3ccsc3n2)n(N)c1=O`, the z-score was 0.619. `O=C(Nc1ccc(Cl)cc1)NC1(C(=O)NCCCN2CCOCC2)CCCCC1` displayed a z-score of 0.295. For the compound `N#Cc1c(-c2ccc(Br)cc2)nc2n(c1=O)CCCS2`, the z-score is -0.096. In turn, `COc1ccc(Cl)cc1N(C(=O)Nc1cccc(Cl)c1)C1=NCC(C)S1` (configuration not stated) displayed a z-score of -0.171. For the compound `Cc1ccc2cc(C#N)c(SCC(=O)N3CCCc4ccccc43)nc2c1`, the z-score was -0.381. To `Cc1ccc(S(=O)(=O)NC2CCC(C(=O)O)CC2)cc1` (configuration not stated) belongs -0.708; to `Fc1ccc(Br)cc1C1C=C(c2ccc(Br)cc2)Nc2ncnn21` (configuration not stated), -0.401. `Fc1ccc(CCNC(=S)Nc2ccc(F)cc2)cc1` gave a z-score of 0.103.

`N#Cc1c(N)sc2c1CCN(C(=O)OCc1ccccc1)C2` registered a z-score of -0.0534. In turn, `CCCN1Cc2cccc(C(=O)NCc3ccccc3OC)c2C1=O` yielded a z-score of -0.286. With `CCOC(=O)CSc1nnc(Cn2nnc(-c3ccccc3)n2)n1C` the figure was -0.131. `CCCCn1c(SCC(=O)Nc2ccccc2C(F)(F)F)nc2ccsc2c1=O`: the z-score was 0.00651. With `CCOC(=O)C(=Cc1ccc(F)cc1)C(=O)OCC` the figure was -0.17. To `Cc1nc(C)n(CC(O)COc2ccc(C(=O)c3ccccc3)cc2)n1` (configuration not stated) belongs 0.00952. The compound `CCN1c2ccccc2NC2C1C(C(C)=O)C(=O)N2c1ccc(Cl)cc1` (configuration not stated) registered a z-score of -0.229.

For `CC1(C)CC(=O)C(C=NCCN2CCN(C(=S)Nc3ccc(F)cc3)CC2)=C(O)C1`, the z-score is -0.0379.

`COCCOC(=O)c1c(C)oc2ccc(OC(=O)c3cccs3)cc12` returned a z-score of -0.232. For `CN1c2ccsc2C(O)=C(C(=S)Nc2ccccc2)S1(=O)=O`, the z-score is 0.327. To `CCCc1nnc(SCC(=O)O)n1/N=C/c1ccc2c(c1)OCO2` belongs -0.285; to `COc1ccc(OC)c(CCNC(=O)CC2Oc3ccccc3NC2=O)c1` (configuration not stated), -0.218; to `COc1ccc(NC2=NCCC(=O)N2Cc2cccs2)cc1`, -0.358. Compound `Cn1c(=O)[nH]c(=O)c2c1nc(NCCCn1ccnc1)n2CCOc1ccccc1` yielded a z-score of 0.727. `COc1ccc(CN(Cc2ccc(OC)cc2)S(=O)(=O)c2ccc(-n3cnnn3)c(C)c2)cc1`: the z-score came to 0.226. `CCN=C1Cn2c(nc3scc(-c4ccccc4)c3c2=O)CN1CC` yielded a z-score of 0.129.

In turn, `C=CCN1C(=O)CN=C1Nc1cccc(C)c1` had a z-score of -0.337. The compound `CCOC(=O)c1ccc(C(=O)OCC)c(NC(=S)Nc2ccc([N+](=O)[O-])cc2OC)c1` registered a z-score of 1.04.

Consider `Cc1cc(C)c(NC(=O)CSc2ccc3nnc(CCNC(=O)c4ccccc4)n3n2)c(C)c1`, for which the z-score came out at 0.745. Turning to `Cc1ccc(CNC(=O)C2(c3cccs3)CCOCC2)cc1`, the z-score is -0.222.

In turn, `O=P(c1ccccc1)(c1ccccc1)C(c1ccco1)N1CCOCC1` (configuration not stated) displayed a z-score of 1.06. On to `Cn1nnc2cc(NC(=O)N3CCN(c4ccccn4)CC3)ccc21`, for which the z-score worked out at 0.387.

For the compound `C=C(C)Cn1c(CCn2c3ccccc3c3ccccc32)n[nH]c1=S`, the z-score worked out at 0.0347. For `O=C1C=C(c2ccccc2)C[C@H](c2cccs2)[C@H]1n1nnc([N+](=O)[O-])n1`, the z-score is -0.206. On to `CCOC(=O)C1=C(C)Nc2ncnn2C1c1ccccc1F` (configuration not stated), for which the z-score amounted to 0.124. The compound `Cc1nc(CSc2nnc3scc(-c4ccc(Cl)cc4)n23)cs1` displayed a z-score of -0.456.

Compound `Cc1ccccc1OCc1nnc(SCC(=O)Nc2ccc(N3CCOCC3)c(Cl)c2)n1C` came in with a z-score of -0.103. In turn, `Cc1cc(C(=O)COC(=O)c2n[nH]c3ccccc23)c(C)n1CC1CCCO1` (configuration not stated) gave a z-score of -0.235. Regarding `Cc1ccc2c(COC(=O)C3=COCCO3)cc(=O)oc2c1`, the z-score is -0.264. Regarding `O=C(C1CCCN(S(=O)(=O)c2cccnc2)C1)N1CCn2c1nc1ccccc12` (configuration not stated), the z-score was -0.382.

The compound `O=C(N=Nc1c(O)[nH]c2ccc([N+](=O)[O-])cc12)c1cc(-c2ccccc2Cl)nc2ccccc12` showed a z-score of -0.0425. Regarding `CCOc1ccc(NC(=O)CSc2ncnc3c2sc2ccccc23)cc1`, the z-score is -0.0671. In turn, `CCCn1c(/N=C/c2ccccc2O)nc2ccccc21` showed a z-score of -1.25. With `Cc1cc(Cl)ccc1NC(=O)CN1CCC(C(O)(c2ccccc2)c2ccccc2)CC1` the figure was -0.415. `CC(C)NS(=O)(=O)c1ccc(OCC(=O)N2CCCC2)cc1` came in with a z-score of -0.369. `O=C1/C(=C/c2ccc(N3CCCC3)cc2)NC(=S)N1C1CC1` registered a z-score of 2.85. In turn, `COc1cccc(C2=CC(c3ccc(C)cc3)n3ncnc3N2)c1` (configuration not stated) displayed a z-score of -0.652. The compound `c1ccc(Nc2ccccc2Nc2ccccn2)nc1` yielded a z-score of -0.0266. In turn, `O=C(c1ccc(Cl)cc1)c1c[nH]c(C(=O)C(Cl)(Cl)Cl)c1` returned a z-score of -1.4.

`CCS(=O)(=O)c1ccc(O)c(NC(=O)COc2ccccc2)c1` registered a z-score of -0.128. On to `CCOc1ccccc1N1CCN(C/C=C/c2ccc(N(C)C)cc2)CC1`, for which the z-score is -0.298. With `COc1cccc2cc(C(=O)C3=C(O)C(=O)N(Cc4ccco4)C3c3cccnc3)oc12` (configuration not stated) the figure was -1.04; with `CCCS(=O)(=O)c1c(S(=O)(=O)CCC)c2cnccn2c1C(=O)c1ccc(CC)cc1`, 0.111; with `CCCC(=O)NCCCc1nc2ccccc2n1C(C)C`, -0.423. On to `COC(=O)c1ccc(/C=C(\C#N)c2nc3ccccc3s2)cc1`, for which the z-score is 0.103.

As to `O=C(Cc1ccccc1)Nc1cccc(-c2nc3ncccc3o2)c1`, the z-score was -0.188.

Consider `O=C(CCc1nc2ccccc2s1)OCc1ccccc1F`, for which the z-score is -0.0861.

Take `CCCn1nc2cc(C(=O)NCc3ccc(C)cc3)ccc2c1OCC`: the z-score was -0.255. With `CSc1nsc(SCC(=O)N2CCN(c3ccccc3)CC2)n1` the figure was 0.374; with `O=C(N/N=C/c1ccco1)c1cccs1`, -0.0413.

Take `O=C(N/N=C/c1cccs1)c1ccco1`: the z-score was 0.3.

`CCOc1ccc(OCC)c(S(=O)(=O)NCc2cccnc2)c1`: the z-score was -0.172.

For the compound `NC(=O)C1CCCN(CCc2ccccc2)C1` (configuration not stated), the z-score is 0.194. With `Cc1ccc(C(=O)Nc2cccnc2)cc1NC(=O)c1ccco1` the figure was -0.0258; with `CCCS(=O)(=O)N1CCN(C(=O)COc2ccc(OC)cc2)CC1`, -0.48; with `Cc1nc2oc3c(NCC4CCCO4)ncnc3c2c2c1COC(C)(C)C2` (configuration not stated), 0.197.

With `CCOC(=O)C1=C(N)Oc2ccc3ccccc3c2C1c1cccnc1` (configuration not stated), the z-score is -0.381. On to `CCOc1cc(/C=N/NC(=O)c2cc(C)[nH]n2)ccc1OC(=O)c1ccc([N+](=O)[O-])cc1`, for which the z-score is -0.712. Turning to `Cc1onc(-c2ccccc2)c1C(=O)Nc1sc2c(c1C(N)=O)CCC2`, the z-score is 0.59.

In turn, `CCOC(=O)N1CCC(NC(=O)C2CCN(S(=O)(=O)c3cccs3)CC2)CC1` yielded a z-score of 0.219. Compound `Cc1cc(C)n(C(=O)c2c([N+](=O)[O-])cnn2C)n1` gave a z-score of 0.13.

In turn, `COCCNC(=O)CSc1nc(N)c(NC(=O)c2ccccc2F)c(=O)[nH]1` yielded a z-score of -0.129. Take `COc1ccc(CCN2C(=O)CC(NCc3ccc4c(c3)OCO4)C2=O)cc1OC` (configuration not stated): the z-score is -0.161. As to `CCC(CC)C(=O)NCCc1cc2c(OC)ccc(OC)c2[nH]c1=O`, the z-score turned out to be 0.00036. In turn, `Cc1cc(NC(=O)c2cc(-c3cccnc3)nc3c(C)c(C)ccc23)no1` displayed a z-score of -0.63. To `CN(CC(=O)Nc1cccc2ccccc12)c1ccc(S(=O)(=O)N2CCOCC2)cn1` belongs 0.0637. `O=C(CNC(=O)c1cccs1)OCC(=O)c1cccs1` registered a z-score of 0.0956. Regarding `Cc1ccccc1OCC(=O)NCC(=O)N/N=C/C=C/c1ccccc1`, the z-score is -0.291. With `Cc1ccc(NC(=O)Cn2c(=O)n(Cc3ccco3)c(=N)c3c4c(sc32)COC(C)(C)C4)cc1` the figure was -0.0547; with `Fc1cccc(NC(=S)NCc2ccccn2)c1`, -0.103; with `O=c1[nH]c(SCc2n[nH]c(=S)n2-c2ccccc2)nc2ccccc12`, -1.63. Regarding `COc1cccc(C2CC(C(F)(F)F)n3nc(C(=O)NCc4cccnc4)cc3N2)c1` (configuration not stated), the z-score is 0.302.

`CCOC(=O)Nc1sc(C(=O)N(C)C)c(C)c1C(=O)OCC` yielded a z-score of -0.0884.

For the origin of these results see PubChem BioAssay AID488969 (Vanderbilt High Throughput Screening Facility, 2010).
